Results: the RNAGym collection of RNA variant scans (doi:10.1093/nar/gkz1192)
The source gives no read counts; variants with many changes may rest on few reads.

B1: CPEB3 Ribozyme (parent)
chain: UAACAGGGGGCCACAGCAGAAGCGUUCACGUCGCAGCCCCUGUCAGAUUCUGGUGAAUCUGCGAAUUCUGCUGUAUAUCUC

Variants of: B1
Assay: self-cleavage, relative activity (ratio to wild type); higher = more cleavage; in vitro, sequencing
Method in brief: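 After error-prone PCR and barcoding, CPEB3 ribozyme mutant libraries were transcribed with T7 RNA polymerase at 37°C for 5 hours, then given 15 min with DNase I before an EDTA stop, and they cleaved during both steps. Reverse transcription with template switching preceded Illumina sequencing. Relative activity divides a variant's cleaved/total read fraction by the unmutated ribozyme's. At least 5 reads were required per variant, and three batches were averaged.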

Row | Variant | self-cleavage
1 | A45C A56G A64G | 0.43
2 | A45C A56G A65U | 0.15
3 | A45C A56G U60A U76A | 0.4
4 | A45C A64U U69C | 0.07
5 | A45C A77U C81A | 0.29
6 | A45C G63A U72C | 0.23
7 | A45C G70A G73A | 0.4
8 | A45C U48C G53U U72C | 0.18
9 | A45C U51A U54G A64U A65U U72C G73A | 0.07
10 | A45C U51A U58C U67C | 0.13
11 | A45C U51C A65G U72C | 0.09
12 | A45C U54C U72A U80C | 0.48
13 | A45C U54G U60C A64G | 0.37
14 | A45C U58C U60C | 0.41
15 | A45C U60C A64G U72A | 0.16
16 | A45C U72C U80C | 0.69
17 | A45G A47G U54C U58A A64U A65U | 0.14
18 | A45G A47G U60A U66C U80C | 0.09
19 | A45G A47G U69C U80C | 0.24
20 | A45G A47G U72A U76C | 0.45
21 | A45G A56G G61A A77U U78C | 0.64
22 | A45G A56G G63A | 0.64
23 | A45G A57G U72C | 0.54
24 | A45G A57G U76A | 0.67

Row | Variant | self-cleavage
25 | A45G A57G U78C | 0.54
26 | A45G A64G A77U | 0.8
27 | A45G A65U U66C | 0.2
28 | A45G A65U U69C U72C | 0.36
29 | A45G C62G U78A | 0.16
30 | A45G C62U G73A | 0.28
31 | A45G C71U U72A U80C | 0.97
32 | A45G C79G U80C C81U | 1
33 | A45G G46A A47G U67A | 0.31
34 | A45G G46A U48C A75U | 0.17
35 | A45G G46A U48C U58G C62U U78C | 0.11
36 | A45G G46A U54A U67C | 0.34
37 | A45G G52C A56G U72A | 0.37
38 | A45G G63C C71A U80C | 0.4
39 | A45G G63U A64G | 0.49
40 | A45G G70A A75U | 0.35
41 | A45G U48C U54C U72C | 0.22
42 | A45G U48C U54G A64U | 0.17
43 | A45G U49A U51C U67C C71U A77G | 0.16
44 | A45G U49C C79G | 0.1
45 | A45G U51A A56G | 0.33
46 | A45G U51A U60A C81U | 0.78
47 | A45G U51A U60C | 1.17
48 | A45G U51A U80C | 0.67

Row | Variant | self-cleavage
49 | A45G U51C U54C A77G | 0.3
50 | A45G U51C U58A U60C U80C | 0.6
51 | A45G U51C U60C | 0.93
52 | A45G U51C U69C | 0.43
53 | A45G U51C U78C | 0.6
54 | A45G U54C C79A | 1.06
55 | A45G U54C U72C U74C C79A | 1.23
56 | A45G U58A U67C | 0.35
57 | A45G U58C A77U | 0.34
58 | A45G U58C U60C U72C U74C A75G | 0.42
59 | A45G U60A U67C | 0.3
60 | A45G U60A U72A | 0.4
61 | A45G U60A U78C | 0.53
62 | A45G U60C A64U U74A A75C | 0.61
63 | A45G U66A U72C | 0.41
64 | A45G U66C U72C | 0.42
65 | A45G U66C U74A | 0.35
66 | A45G U67A U80A | 0.3
67 | A45G U72A U80C | 1.23
68 | A45G U72C U80C | 1.24
69 | A45U A47G A56G A77C | 0.1
70 | A45U A56G A65G | 0.12
71 | A45U A56G A75U A77U | 0.17
72 | A45U A57G U60A | 1.12

Row | Variant | self-cleavage
73 | A45U A64G U74C U78C | 0.36
74 | A45U A64G U76A | 0.39
75 | A45U A64U U67A | 0.2
76 | A45U A64U U72C | 0.4
77 | A45U A64U U78C | 0.16
78 | A45U C62U U72C | 0.16
79 | A45U G46A U54A A57G A77C C81U | 0.03
80 | A45U G55U C62U | 0.11
81 | A45U G63A U76G | 0.38
82 | A45U G63U U80A | 0.64
83 | A45U G73A U80C | 1.26
84 | A45U U48C U51C | 0.5
85 | A45U U48C U69C | 0.15
86 | A45U U48C U72C | 0.35
87 | A45U U49A U58A | 0.41
88 | A45U U49C A56U G70A U78A | 0.04
89 | A45U U49C U76C A77C | 0.32
90 | A45U U51A A77G | 0.22
91 | A45U U51A U78A | 0.37
92 | A45U U51C A57G U58C | 0.22
93 | A45U U54A U72C C81U | 1.08
94 | A45U U54C A56U | 0.17
95 | A45U U54C U58A A65G U74A | 0.09
96 | A45U U54C U60A | 1.07

Row | Variant | self-cleavage
97 | A45U U54C U78A | 0.53
98 | A45U U60A U67G U72A | 0.11
99 | A45U U60C U66C U72A | 0.16
100 | A45U U67A U69C U72C A77U | 0.18
101 | A45U U69A U78C | 0.35
102 | A45U U72C A75C | 0.77
103 | A45U U74C A75G | 0.65
104 | G46A A57U C59A A77U | 0.12
105 | G46A G61C U67C U80C | 0.08
106 | G46A U49C A64G | 0.18
107 | G46A U51G U69A | 0.21
108 | G46A U54G U58G U69A | 0.23
109 | G46C A47U U72C | 0.22
110 | G46C U60C A64G U74C U76C | 0.17
111 | G46U A47U A56G U67C | 0
112 | G46U G61A U69C A77G C79G | 0.17
113 | G46U U54C U60A A64G U78A | 0.07
114 | G46U U72C C79G U80G | 0.03
115 | A47C A56C U67C | 0.09
116 | A47C U49A A57G C81U | 0.47
117 | A47C U49C G55C U69A U78C | 0.14
118 | A47C U66C U67C | 0.2
119 | A47G A56G A64U A77U | 0.41
120 | A47G A56G U72A | 1.06

Row | Variant | self-cleavage
121 | A47G A56U A77C | 0.18
122 | A47G A57C U78A U80A | 0.3
123 | A47G A57G U74A | 1.03
124 | A47G A57G U78C | 0.47
125 | A47G A64G U66C | 0.25
126 | A47G A65U U67A | 0.33
127 | A47G A77G U78A | 1.19
128 | A47G C50A A57U A64U U69C | 0.08
129 | A47G C62U A64G U78A | 0.19
130 | A47G G52A U58A | 0.65
131 | A47G G53A U80A | 0.96
132 | A47G G63C C81U | 0.79
133 | A47G U48C A64G | 0.15
134 | A47G U48C A77U | 0.39
135 | A47G U48C U66A U69A | 0.45
136 | A47G U48C U66C U78A | 0.11
137 | A47G U49C A57U U58C U67C | 0.14
138 | A47G U49C U78C | 0.28
139 | A47G U51A A57C A75G U80A | 0.2
140 | A47G U51A U66C U80A | 0.11
141 | A47G U51A U67C | 0.16
142 | A47G U51C A75U U78C | 0.63
143 | A47G U51C U69A | 0.44
144 | A47G U51C U72A | 0.94

Row | Variant | self-cleavage
145 | A47G U54A U67C U69C | 0.35
146 | A47G U54C A75G | 0.95
147 | A47G U54C U67A | 0.49
148 | A47G U58A C62U U78C | 0.16
149 | A47G U58A U78C C81U | 0.28
150 | A47G U60A A75G | 0.47
151 | A47G U60C A64G A75G | 0.11
152 | A47G U67C A77U | 0.42
153 | A47G U72C U80A | 1.19
154 | A47G U72C U80C | 1.28
155 | A47U A56G A57G | 0.15
156 | A47U A57G A64G | 0.17
157 | A47U A57G U58C | 0.25
158 | A47U A64U U66A | 0.07
159 | A47U A65G U78C | 0.2
160 | A47U A75U A77G | 0.57
161 | A47U G55A A57U A64G | 0.1
162 | A47U U48C U54C | 0.14
163 | A47U U49C A65G | 0.1
164 | A47U U49C U54A A75U | 0.17
165 | A47U U49C U58A | 0.41
166 | A47U U49C U78C | 0.39
167 | A47U U51A U80C | 0.26
